# Laboratory results as given in paper PMC4936188.
# Amino acid sequences for entries named in this document (tags omitted).
# UniProt Q9JJS7: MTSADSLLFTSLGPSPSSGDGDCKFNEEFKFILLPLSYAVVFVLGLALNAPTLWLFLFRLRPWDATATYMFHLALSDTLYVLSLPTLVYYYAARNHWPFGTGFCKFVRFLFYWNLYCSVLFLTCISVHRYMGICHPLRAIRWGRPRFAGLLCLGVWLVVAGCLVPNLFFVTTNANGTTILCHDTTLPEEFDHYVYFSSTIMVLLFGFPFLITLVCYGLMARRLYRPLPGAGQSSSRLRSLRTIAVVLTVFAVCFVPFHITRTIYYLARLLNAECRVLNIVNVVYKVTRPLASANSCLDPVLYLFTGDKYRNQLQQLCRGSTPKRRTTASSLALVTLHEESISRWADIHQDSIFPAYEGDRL
# UniProt P35383: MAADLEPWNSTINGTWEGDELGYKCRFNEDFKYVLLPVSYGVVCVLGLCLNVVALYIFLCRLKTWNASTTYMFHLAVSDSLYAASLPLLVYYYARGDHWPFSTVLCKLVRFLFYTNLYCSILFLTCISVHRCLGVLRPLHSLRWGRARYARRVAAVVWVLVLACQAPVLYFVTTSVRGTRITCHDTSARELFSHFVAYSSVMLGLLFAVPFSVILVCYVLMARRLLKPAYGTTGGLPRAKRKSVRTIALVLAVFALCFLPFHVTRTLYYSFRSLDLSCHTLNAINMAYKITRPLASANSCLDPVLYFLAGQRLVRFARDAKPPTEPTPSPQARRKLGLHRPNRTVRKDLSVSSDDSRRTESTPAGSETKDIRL
# UniProt P49650: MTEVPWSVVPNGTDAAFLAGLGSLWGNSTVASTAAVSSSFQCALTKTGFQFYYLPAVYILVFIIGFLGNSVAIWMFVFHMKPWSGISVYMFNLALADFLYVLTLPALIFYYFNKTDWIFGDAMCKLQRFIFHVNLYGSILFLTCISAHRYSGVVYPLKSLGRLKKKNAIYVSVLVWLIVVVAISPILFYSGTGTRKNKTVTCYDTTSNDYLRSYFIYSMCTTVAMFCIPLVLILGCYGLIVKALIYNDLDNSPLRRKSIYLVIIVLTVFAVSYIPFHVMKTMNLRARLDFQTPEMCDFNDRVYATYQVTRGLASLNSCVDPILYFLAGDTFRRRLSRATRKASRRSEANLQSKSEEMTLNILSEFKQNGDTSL
# Results are given in words; binding and its absence hold for the method and conditions named. Binding seen in cells or lysates may run through a third protein. Some results given as binding are weak or reduced against the parent protein; the word gives no strength.
# What was measured:
# [1] = molecular target: P2Y4 receptor (mouse (endogenous in bone marrow granulocytes of C57BL/10 mice)) (UniProt Q9JJS7); test: co-IP; granulocyte lysate (1 % Triton X-100 lysing buffer, 600 ug protein), precleared with rabbit normal serum; IP with rabbit polyclonal anti-P2Y1, anti-P2Y2 or anti-P2Y4 IgG and protein A-Sepharose, 4 °C overnight; Western blot with rabbit anti-P2Y antibodies, chemiluminescence
# [2] = molecular target: P2Y2 receptor (mouse (endogenous in bone marrow granulocytes of C57BL/10 mice)) (UniProt P35383); test: as above
# [3] = molecular target: P2Y1 receptor (mouse (endogenous in bone marrow granulocytes of C57BL/10 mice)) (UniProt P49650); test: FRET or BRET; antibody-labelled fixed granulocytes; emission spectra 515-600 nm at 488 nm excitation in a microplate spectrofluorometer (FLEX station 3); FRET ratio 575 nm/525 nm
# [4] = molecular target: P2Y1 receptor (mouse (endogenous in bone marrow granulocytes of C57BL/10 mice)) (UniProt P49650); test: co-IP; whole protein lysate of granulocytes (1,000 ug); IP with goat polyclonal anti-P2Y1 on protein A-Sepharose, 4 °C, 12 h; blot with rabbit anti-P2Y2 and rabbit anti-P2Y1 and infrared fluorescent secondary antibodies (Odyssey)
# [5] = molecular target: P2Y1 receptor (mouse (endogenous in bone marrow granulocytes of C57BL/10 mice)) (UniProt P49650); test: FRET or BRET; fixed, permeabilized granulocytes; goat anti-P2Y1 with Alexa Fluor 488 secondary (donor), rabbit anti-P2Y2 or anti-P2Y4 with Alexa Fluor 546 secondary (acceptor); confocal microscopy, excitation 488 nm, emission 560-650 nm
# [6] = molecular target: P2Y1 receptor (mouse (endogenous in bone marrow granulocytes of C57BL/10 mice)) (UniProt P49650); test: co-IP; granulocyte lysate (1 % Triton X-100 lysing buffer, 600 ug protein), precleared with rabbit normal serum; IP with rabbit polyclonal anti-P2Y1, anti-P2Y2 or anti-P2Y4 IgG and protein A-Sepharose, 4 °C overnight; Western blot with rabbit anti-P2Y antibodies, chemiluminescence
Substance,binding [1],binding [2],binding [3],binding [4],binding [5],binding [6]
P2Y1 receptor (from UniProt P49650 1-373),binds,binds,–,–,–,–
P2Y2 receptor (from UniProt P35383 1-373),–,–,binds,binds,binds,binds
P2Y4 receptor (from UniProt Q9JJS7 1-361),–,no binding,binds,–,binds,binds
